No constants are given. Whether binding was seen depends on the method and setting. For some assays here: Binding seen in cells or lysates may run through a third protein. Some results given as binding are weak or reduced against the parent protein; the word gives no strength. For some assays here: Where a sequence is shown, tags or fusion partners need not be part of it. Each block holds one binder with its values, some of them ahead of it.
Tests used:
[1] = target: Wild-type Erh1, TAP-tagged and FLAG-tagged copies co-expressed in S. pombe (S. pombe) (UniProt G2TRN4); assay: co-IP; TAP pull-down from native extracts of S. pombe erh1∆ cells expressing plasmid-encoded tagged Erh1, Western blot; as described in Simonetti et al. (ref. 21)
[2] = target: Erh1 I11R,L13R, TAP-tagged and FLAG-tagged copies co-expressed in S. pombe (S. pombe) (UniProt G2TRN4); assay: as above
[3] = target: T1, Mmi1-TAP (S. pombe) (UniProt O74958); assay: as above
T1 sequence: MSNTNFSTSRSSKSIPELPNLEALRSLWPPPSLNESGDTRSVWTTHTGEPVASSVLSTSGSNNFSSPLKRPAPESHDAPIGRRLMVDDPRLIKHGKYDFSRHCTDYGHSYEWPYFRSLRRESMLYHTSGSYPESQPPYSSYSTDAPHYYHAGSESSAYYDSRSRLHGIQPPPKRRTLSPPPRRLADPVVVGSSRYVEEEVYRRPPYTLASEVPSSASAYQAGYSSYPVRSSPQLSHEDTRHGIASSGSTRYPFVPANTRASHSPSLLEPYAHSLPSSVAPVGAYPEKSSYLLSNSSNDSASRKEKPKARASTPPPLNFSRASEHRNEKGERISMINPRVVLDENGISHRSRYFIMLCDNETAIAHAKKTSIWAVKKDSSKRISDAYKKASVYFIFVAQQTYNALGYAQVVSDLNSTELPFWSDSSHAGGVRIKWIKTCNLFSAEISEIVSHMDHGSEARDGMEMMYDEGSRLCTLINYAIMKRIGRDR

[4] = target: S. pombe Erh1 I11R,L13R double mutant, recombinant (S. pombe) (UniProt G2TRN4); assay: SEC-MALS; SEC-MALLS of purified recombinant proteins in solution; both purified

B1: Wild-type Erh1, TAP-tagged and FLAG-tagged copies co-expressed in S. pombe (protein, UniProt G2TRN4 1-104)
chain: MSPPPAESHIILLIQQGSDPKTRIWSDHCSLRSAIEYIVGVYQTNQAVSEKESIDVSRFFNFFDEIYDCVPLVYDRHFRAYIPHEKQWLLHHAQEYLTAARQIP
binding [1]: binds

B2: Erh1 I11R,L13R, TAP-tagged and FLAG-tagged copies co-expressed in S. pombe (protein, UniProt G2TRN4 1-104)
chain: MSPPPAESHIRLRIQQGSDPKTRIWSDHCSLRSAIEYIVGVYQTNQAVSEKESIDVSRFFNFFDEIYDCVPLVYDRHFRAYIPHEKQWLLHHAQEYLTAARQIP
binding [2]: no binding

B4: GFP-Erh1 I11R,L13R, plasmid-encoded in S. pombe (protein, UniProt G2TRN4 1-104)
chain: MSPPPAESHIRLRIQQGSDPKTRIWSDHCSLRSAIEYIVGVYQTNQAVSEKESIDVSRFFNFFDEIYDCVPLVYDRHFRAYIPHEKQWLLHHAQEYLTAARQIP
binding [3]: binds

Other lines, results leading:

binding [3]: binds
B3: GFP-Erh1, wild type, plasmid-encoded in S. pombe (protein, UniProt G2TRN4 1-104)
chain: MSPPPAESHIILLIQQGSDPKTRIWSDHCSLRSAIEYIVGVYQTNQAVSEKESIDVSRFFNFFDEIYDCVPLVYDRHFRAYIPHEKQWLLHHAQEYLTAARQIP

binding [4]: no binding
B5: S. pombe Erh1 I11R,L13R double mutant, recombinant (protein, UniProt G2TRN4 1-104)
chain: MSPPPAESHIRLRIQQGSDPKTRIWSDHCSLRSAIEYIVGVYQTNQAVSEKESIDVSRFFNFFDEIYDCVPLVYDRHFRAYIPHEKQWLLHHAQEYLTAARQIP
